Test results reported in US5661001, “High molecular weight desulphatohirudin” (Ciba-Geigy Corporation, dated 1997).

Target: human thrombin (human)
Experiment: progress-curve kinetics of thrombin inhibition, D-Phe-pipecolyl-Arg-p-nitroanilide 100 µM, enzyme 20 pM

B1: [Cys^33 ]HV1--[Cys^33 ]HV1 dimer (other)
chain: VVYTDCTESGQNLCLCEGSNVCGQGNKCILGSCGEKNQCVTGEGTPKPQSHNDGDFEEIPEEYLQ
modifications: Cys^33 --Cys^33 intermolecular disulfide bond between the two chains; no sulphate at Tyr^63 (desulphatohirudin)
B1 gave a Ki of 0.33 pM and a kon of 5.1e+07 M⁻¹ s⁻¹.
